From PMC5730846
Results are given in words; binding and its absence hold for the method and conditions named. For some of these results: In cells and extracts the contact can be indirect. Some entries that bind do so weakly or less than the wild type. For some of these results: Where a sequence is shown, tags or fusion partners need not be part of it. Each block holds one binder with its values, some of them ahead of it.

Chains of the proteins cited; added tags and fusions are not shown.
UniProt P49815: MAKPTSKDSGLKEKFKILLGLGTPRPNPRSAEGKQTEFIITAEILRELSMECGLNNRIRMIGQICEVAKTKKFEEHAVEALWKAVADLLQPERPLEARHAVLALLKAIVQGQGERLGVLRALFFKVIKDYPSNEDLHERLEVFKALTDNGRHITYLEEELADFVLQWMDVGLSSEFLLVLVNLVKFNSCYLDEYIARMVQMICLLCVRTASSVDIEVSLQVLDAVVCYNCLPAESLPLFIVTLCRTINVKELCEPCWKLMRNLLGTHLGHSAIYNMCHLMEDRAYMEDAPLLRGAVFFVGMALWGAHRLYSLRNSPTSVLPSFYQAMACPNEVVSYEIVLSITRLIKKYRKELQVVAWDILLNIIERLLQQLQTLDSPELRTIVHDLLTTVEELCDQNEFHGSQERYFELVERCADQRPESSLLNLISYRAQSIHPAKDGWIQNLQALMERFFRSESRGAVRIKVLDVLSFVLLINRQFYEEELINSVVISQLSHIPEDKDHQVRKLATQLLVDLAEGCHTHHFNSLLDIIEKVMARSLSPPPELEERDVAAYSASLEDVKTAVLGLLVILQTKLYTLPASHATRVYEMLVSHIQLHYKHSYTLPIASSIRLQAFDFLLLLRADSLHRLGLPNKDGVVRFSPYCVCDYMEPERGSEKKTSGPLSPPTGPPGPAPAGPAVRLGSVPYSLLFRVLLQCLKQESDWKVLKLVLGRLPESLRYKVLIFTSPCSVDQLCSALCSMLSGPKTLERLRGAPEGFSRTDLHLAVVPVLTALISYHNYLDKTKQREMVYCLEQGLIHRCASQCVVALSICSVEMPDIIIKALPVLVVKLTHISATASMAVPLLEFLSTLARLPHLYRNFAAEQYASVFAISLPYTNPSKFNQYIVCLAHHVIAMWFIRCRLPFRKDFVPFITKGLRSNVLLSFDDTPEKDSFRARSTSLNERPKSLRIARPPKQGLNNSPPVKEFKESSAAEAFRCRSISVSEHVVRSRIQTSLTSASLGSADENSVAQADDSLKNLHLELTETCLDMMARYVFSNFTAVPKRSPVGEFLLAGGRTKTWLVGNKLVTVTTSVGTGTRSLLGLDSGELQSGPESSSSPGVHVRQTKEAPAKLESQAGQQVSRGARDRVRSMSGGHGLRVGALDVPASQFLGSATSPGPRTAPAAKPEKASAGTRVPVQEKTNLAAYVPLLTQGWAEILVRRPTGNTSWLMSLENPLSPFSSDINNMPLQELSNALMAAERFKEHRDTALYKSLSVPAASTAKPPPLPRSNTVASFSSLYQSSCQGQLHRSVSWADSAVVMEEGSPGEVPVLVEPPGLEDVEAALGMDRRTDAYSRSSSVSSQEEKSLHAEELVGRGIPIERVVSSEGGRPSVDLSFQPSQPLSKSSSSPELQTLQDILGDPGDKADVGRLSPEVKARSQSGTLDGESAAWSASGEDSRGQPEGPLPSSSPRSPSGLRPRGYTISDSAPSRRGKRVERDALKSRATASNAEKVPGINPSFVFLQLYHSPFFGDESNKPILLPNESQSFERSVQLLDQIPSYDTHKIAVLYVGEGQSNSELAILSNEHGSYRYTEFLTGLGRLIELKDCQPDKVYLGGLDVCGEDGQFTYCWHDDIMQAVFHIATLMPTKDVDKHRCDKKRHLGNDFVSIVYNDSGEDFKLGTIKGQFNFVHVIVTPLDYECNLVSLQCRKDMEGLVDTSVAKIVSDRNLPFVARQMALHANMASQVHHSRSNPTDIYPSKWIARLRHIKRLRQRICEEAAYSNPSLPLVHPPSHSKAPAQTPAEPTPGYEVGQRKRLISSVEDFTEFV
UniProt P08238: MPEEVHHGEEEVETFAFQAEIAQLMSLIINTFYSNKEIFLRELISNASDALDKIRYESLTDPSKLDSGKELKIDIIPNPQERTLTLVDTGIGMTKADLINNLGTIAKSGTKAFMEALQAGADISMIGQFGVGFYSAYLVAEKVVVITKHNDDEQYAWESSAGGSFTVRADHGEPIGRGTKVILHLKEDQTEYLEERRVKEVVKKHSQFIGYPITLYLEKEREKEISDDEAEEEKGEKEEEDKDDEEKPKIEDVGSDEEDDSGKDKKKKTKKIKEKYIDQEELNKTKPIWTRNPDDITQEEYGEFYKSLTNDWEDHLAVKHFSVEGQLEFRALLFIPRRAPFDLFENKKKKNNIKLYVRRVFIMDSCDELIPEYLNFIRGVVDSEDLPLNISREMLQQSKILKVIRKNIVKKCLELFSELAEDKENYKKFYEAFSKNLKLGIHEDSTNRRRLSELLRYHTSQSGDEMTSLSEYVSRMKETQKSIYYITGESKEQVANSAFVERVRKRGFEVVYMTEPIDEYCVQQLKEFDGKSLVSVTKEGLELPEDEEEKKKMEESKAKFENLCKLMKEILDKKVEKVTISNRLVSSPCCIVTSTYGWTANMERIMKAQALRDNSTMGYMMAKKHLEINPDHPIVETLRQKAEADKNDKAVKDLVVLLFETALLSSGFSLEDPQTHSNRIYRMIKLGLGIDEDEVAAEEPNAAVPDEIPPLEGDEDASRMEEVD

Experiments:
[1] = target: Tsc2 (tuberin) (human (endogenous in HEK293)) (UniProt P49815); experiment: co-IP; endogenous Tsc2 immunoprecipitated from HEK293 lysate with anti-Tsc2 antibody (IgG control); immunoblot
[2] = target: T1, Tsc1 (hamartin) (human (endogenous in HEK293)) (UniProt Q92574); experiment: co-IP; endogenous Tsc1 immunoprecipitated from HEK293 lysate with anti-Tsc1 antibody (IgG control); immunoblot
T1 sequence: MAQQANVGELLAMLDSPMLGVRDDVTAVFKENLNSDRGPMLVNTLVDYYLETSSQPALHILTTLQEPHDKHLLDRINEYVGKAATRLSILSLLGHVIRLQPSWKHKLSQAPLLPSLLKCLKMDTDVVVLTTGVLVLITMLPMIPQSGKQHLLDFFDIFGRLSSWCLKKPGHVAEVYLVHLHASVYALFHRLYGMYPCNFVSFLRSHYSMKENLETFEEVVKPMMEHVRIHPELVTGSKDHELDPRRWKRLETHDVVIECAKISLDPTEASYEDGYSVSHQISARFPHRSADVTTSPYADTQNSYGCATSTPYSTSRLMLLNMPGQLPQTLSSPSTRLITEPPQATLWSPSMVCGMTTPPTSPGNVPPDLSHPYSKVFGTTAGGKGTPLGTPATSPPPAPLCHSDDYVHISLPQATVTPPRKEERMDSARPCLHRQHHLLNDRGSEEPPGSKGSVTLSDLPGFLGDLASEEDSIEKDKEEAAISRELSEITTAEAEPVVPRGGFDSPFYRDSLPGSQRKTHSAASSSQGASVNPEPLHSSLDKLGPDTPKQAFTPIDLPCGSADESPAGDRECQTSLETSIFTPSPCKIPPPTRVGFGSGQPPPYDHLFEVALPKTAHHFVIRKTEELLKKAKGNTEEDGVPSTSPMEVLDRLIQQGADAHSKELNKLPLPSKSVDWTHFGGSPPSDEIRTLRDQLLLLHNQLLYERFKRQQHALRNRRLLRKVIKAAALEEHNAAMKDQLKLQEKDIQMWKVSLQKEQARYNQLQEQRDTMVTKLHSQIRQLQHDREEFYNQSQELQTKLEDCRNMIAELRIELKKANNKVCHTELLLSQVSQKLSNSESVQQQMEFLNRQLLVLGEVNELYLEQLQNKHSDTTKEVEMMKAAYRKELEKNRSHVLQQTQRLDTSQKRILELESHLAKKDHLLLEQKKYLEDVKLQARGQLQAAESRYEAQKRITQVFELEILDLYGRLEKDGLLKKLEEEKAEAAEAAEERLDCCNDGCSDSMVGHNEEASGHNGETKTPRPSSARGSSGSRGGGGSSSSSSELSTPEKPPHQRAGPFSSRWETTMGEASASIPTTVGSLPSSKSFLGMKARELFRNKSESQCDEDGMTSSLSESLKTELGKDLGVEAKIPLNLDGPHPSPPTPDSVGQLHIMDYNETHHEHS

Hsp90β-FLAG = Hsp90β-FLAG (UniProt P08238); experiment: co-IP; FLAG-tagged protein transiently expressed in HEK293, immunoprecipitated with anti-FLAG M2 affinity gel; endogenous partners by immunoblot; empty vector control
purified Tsc2 [3] = target: purified Tsc2 (UniProt P49815); experiment: co-IP; Tsc1:Tsc2 complex on protein G agarose (anti-Tsc2) treated with GB for 1 h at 4°C; both purified
purified Tsc2 [4] = target: purified Tsc2 (UniProt P49815); experiment: co-IP; purified Tsc2 bound to protein G agarose by anti-Tsc2 antibody, incubated with 10 ng pure Tsc1; immunoblot; both purified
Tsc1-D-FLAG = target: T2, Tsc1-D-FLAG (UniProt Q92574); experiment: co-IP; FLAG-tagged protein co-expressed with HA-tagged Tsc1-D in HEK293; anti-FLAG immunoprecipitation; immunoblot
T2 sequence: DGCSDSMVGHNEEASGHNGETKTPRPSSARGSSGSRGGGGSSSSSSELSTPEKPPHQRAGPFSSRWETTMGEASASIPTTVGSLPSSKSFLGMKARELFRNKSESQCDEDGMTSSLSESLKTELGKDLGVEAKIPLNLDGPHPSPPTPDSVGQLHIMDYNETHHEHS

B2: Tsc1 (hamartin) (protein, UniProt Q92574 1-1164)
chain: T1 sequence
binding (Hsp90β-FLAG): binds

B5: Cdc37^p50 (protein, UniProt Q16543 1-378)
chain: MVDYSVWDHIEVSDDEDETHPNIDTASLFRWRHQARVERMEQFQKEKEELDRGCRECKRKVAECQRKLKELEVAEGGKAELERLQAEAQQLRKEERSWEQKLEEMRKKEKSMPWNVDTLSKDGFSKSMVNTKPEKTEEDSEEVREQKHKTFVEKYEKQIKHFGMLRRWDDSQKYLSDNVHLVCEETANYLVIWCIDLEVEEKCALMEQVAHQTIVMQFILELAKSLKVDPRACFRQFFTKIKTADRQYMEGFNDELEAFKERVRGRAKLRIEKAMKEYEEEERKKRLGPGGLDPVEVYESLPEELQKCFDVKDVQMLQDAISKMDPTDAKYHMQRCIDSGLWVPNSKASEAKEGEEAGPGDPLLEAVPKTGDEKDVSV
binding [1]: binds
binding [2]: binds

B6: PP5 (protein, UniProt P53041 1-499)
chain: MAMAEGERTECAEPPRDEPPADGALKRAEELKTQANDYFKAKDYENAIKFYSQAIELNPSNAIYYGNRSLAYLRTECYGYALGDATRAIELDKKYIKGYYRRAASNMALGKFRAALRDYETVVKVKPHDKDAKMKYQECNKIVKQKAFERAIAGDEHKRSVVDSLDIESMTIEDEYSGPKLEDGKVTISFMKELMQWYKDQKKLHRKCAYQILVQVKEVLSKLSTLVETTLKETEKITVCGDTHGQFYDLLNIFELNGLPSETNPYIFNGDFVDRGSFSVEVILTLFGFKLLYPDHFHLLRGNHETDNMNQIYGFEGEVKAKYTAQMYELFSEVFEWLPLAQCINGKVLIMHGGLFSEDGVTLDDIRKIERNRQPPDSGPMCDLLWSDPQPQNGRSISKRGVSCQFGPDVTKAFLEENNLDYIIRSHEVKAEGYEVAHGGRCVTVFSAPNYCDQMGNKASYIHLQGSDLRPQFHQFTAVPHPNVKPMAYANTLLQLGMM
binding [1]: binds
binding [2]: binds

Next, values leading:

binding [1]: binds
binding [2]: no binding
B1: p23 (protein, UniProt Q15185 1-160)
chain: MQPASAKWYDRRDYVFIEFCVEDSKDVNVNFEKSKLTFSCLGGSDNFKHLNEIDLFHCIDPNDSKHKRTDRSILCCLRKGESGQSWPRLTKERAKLNWLSVDFNNWKDWEDDSDEDMSNFDRFSEMMNNMGGDEDVDLPEVDGADDDSQDSDDEKMPDLE

binding (purified Tsc2 [3]): binds
binding (purified Tsc2 [4]): binds
B3: pure Tsc1 (protein, UniProt Q92574 1-1164)
chain: T1 sequence

binding (Tsc1-D-FLAG): binds
B4: Tsc1-D-HA (domain or fragment, UniProt Q92574 998-1164)
chain: T2 sequence
